Laboratory results: US20260200947A1, “FUSED CYCLIC COMPOUNDS AND USE THEREOF” (Jacobio Pharmaceuticals Co., Ltd., priority 2022, published 2026)
Read-outs that look alike come from different tables or passages of the source.

Tests used:
[1] = target: GppNp-KRAS G12D (Homo sapiens, UniProt P01116, G12D); assay: biochemical
[2] = system: SW620 cells (K-Ras G12V); assay: Phospho-ERK1/2(THR202/TYR204) HTRF assay, SW620; assay type: cell-based; conditions: Homo sapiens, SW-620, 2 hours incubation, read-out: pERK, IC50, SW620
[3] = system: AsPC-1 cells (K-Ras G12D)
[4] = system: SW620 cells (K-Ras G12V)
[5] = target: GppNp-KRAS G12V (Homo sapiens, UniProt P01116, G12V); assay: biochemical
[6] = system: AGS cells (K-Ras G12D)

SMILES	IC50 [1] [µM]	IC50 [2] [µM]	IC50 [3] [µM]	IC50 [4] [µM]	IC50 [5] [µM]	IC50 [6] [µM]
C#Cc1c(F)ccc2cc(N)cc(-c3nc4c5c(nc(OCC67CC(=C)CN6CC(=C)C7)nc5c3F)N3CCCOC[C@H]3CO4)c12 [Compound 3]	0.415	0.00139	0.18	0.0255	0.66	0.0472
C#Cc1c(F)ccc2cc(N)cc(-c3nc4c5c(nc(OCC67CCCN6CC(=CF)C7)nc5c3F)N3CCCOC[C@H]3CO4)c12 (stereo partly shown) [Compound 5]	–	0.00415	0.0616	0.00578	–	0.00912
C#Cc1c(F)ccc2cc(O)cc(-c3nc4c5c(nc(OC[C@@]67CCCN6C[C@H](F)C7)nc5c3F)N3CCCOCC3N4C)c12 (stereo partly shown) [Compound 9]	–	0.000724	0.0125	0.000658	–	0.00209
C#Cc1c(F)ccc2cc(N)cc(-c3nc4c5c(nc(OC[C@@]67CCCN6C[C@H](F)C7)nc5c3F)N3CCCOCC3N4C)c12 (stereo partly shown) [Compound 10]	0.0571	0.00354	0.0446	0.0026	0.0549	0.00693
C#Cc1c(F)ccc2cc(N)cc(-c3c(Cl)c4c5c(nc(OC[C@@]67CCCN6C[C@H](F)C7)nc5c3F)N3CCCOC[C@H]3CO4)c12 [Compound 11]	0.172	0.0636	0.583	0.0934	0.366	0.327
C#Cc1c(F)ccc2cc(N)cc(-c3nc4c5c(nc(OCC67CC(=C)CN6C[C@H](F)C7)nc5c3F)N3CCCOC[C@H]3CO4)c12 (stereo partly shown) [Compound 13]	0.0906	0.00227	0.0474	0.00748	0.187	0.0196
C#Cc1c(F)ccc2cc(N)cc(-c3nc4c5c(nc(OC[C@@]67CCCN6C[C@H](F)C7)nc5c3F)N3CC(F)(F)COC[C@H]3CO4)c12 [Compound 19]	–	0.00385	0.294	0.0105	–	0.0263
C#Cc1c(F)ccc2cc(N)cc(-c3nc4c5c(nc(OC[C@@]67CCCN6C[C@H](F)C7)nc5c3F)N3CCOCC3CC4=C)c12 (stereo partly shown) [Compound 22]	–	0.0308	0.47	0.0595	–	0.142
C#Cc1c(F)ccc2cc(N)cc(-c3nc4c5c(nc(OC[C@@]67CCCN6C[C@H](F)C7)nc5c3F)N3CCC=CC[C@H]3CO4)c12 [Compound 37]	0.042	0.00184	0.0271	0.00507	0.0621	0.00479
C#Cc1c(F)ccc2cc(N)cc(-c3nc4c5c(nc(OC[C@@]67CCCN6C[C@H](F)C7)nc5c3F)N3CCCOC(C)[C@H]3N4C)c12 (stereo partly shown) [Compound 42]	–	0.00209	0.0393	0.00279	–	0.00471
C#Cc1c(F)ccc2cc(N)cc(-c3cc4c5c(nc(OC[C@@]67CCCN6C[C@H](F)C7)nc5c3F)N3[C@@H](C)CCOC[C@H]3N4C)c12 [Compound 44]	0.0956	0.0514	0.423	0.0386	0.208	0.178
C#Cc1c(F)ccc2cc(N)cc(-c3nc4c5c(nc(OC[C@@]67CCCN6C[C@H](F)C7)nc5c3F)N3CC(C)COCC3N4C)c12 (stereo partly shown) [Compound 46]	0.0698	0.00814	> 10	0.0134	0.107	0.0776
C#Cc1c(F)ccc2cc(N)cc(-c3nc4c5c(nc(OC[C@@]67CCCN6C[C@H](F)C7)nc5c3F)N3CC(F)(F)COCC3N4C)c12 (stereo partly shown) [Compound 55]	–	0.0035	0.0561	0.00267	–	0.00732
C#Cc1c(F)ccc2cc(O)cc(-c3nc4c5c(nc(OC[C@@]67CCCN6C[C@H](F)C7)nc5c3F)N3CCC=CC[C@H]3CO4)c12 [Compound 63]	0.00727	0.000571	0.00666	0.000655	0.0104	0.000526
C#Cc1c(F)ccc2cc(N)cc(-c3nc4c5c(nc(OC[C@@]67CCCN6C[C@H](F)C7)nc5c3F)N3CC5(CC5)COCC3N4C)c12 (stereo partly shown) [Compound 97]	–	0.0654	0.338	0.0829	–	0.112
